# Laboratory results: the supplement of paper PMC12889115
# The list shows a part of the results. Repeats are few or missing, and single values can be far off.
# Tested on: Salmonella enterica serovar Typhimurium SL1344
# Assay: bacterial growth OD600 after 18 h in MHB with 0.5 µg/mL polymyxin B; higher = more bacterial growth (less inhibition)
# Conditions: 25 µM; polymyxin B 0.5 µg/mL; system: broth
# Procedure: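 Secondary screen of the 553 primary hits at 25 µM. (i) S. Typhimurium SL1344 grown in Mueller-Hinton broth with 0.5 µg/mL polymyxin B, OD600 read after 18 h. (ii) SAFIRE assay: RAW 264.7 macrophages infected with S. Typhimurium sifB::gfp (MOI 30); compound added 2 h post-infection; cells fixed at 18 h; GFP-positive pixel fraction per macrophage imaged by confocal microscopy and expressed as % of DMSO control.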
# 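Further: polymyxin B level opens the outer membrane while sparing the inner membrane, with novobiocin wells as reference growth inhibitor.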
row,Structure (SMILES),bacterial growth OD600
1,Cc1ccc(CN(C)C(=O)CC2(c3cccc(C(F)(F)F)c3)CC(=O)N(C3CC3)C2=O)cc1 (configuration not stated),0.002
2,Cc1ccn(CC(=O)N2CCCC(C(=O)c3ccc(-c4ccccc4)cc3)C2)n1 (configuration not stated),0.002
3,O=C(Nc1cccc(-c2ccc(F)cc2)c1)C1CCCN(C(=O)C2CCC2)C1 (configuration not stated),0.001
4,CCOC(=O)C1(CCCc2ccccc2)CCN(C(=O)C2CC=CCC2)CC1 (configuration not stated),-0.003
5,COCCCN1C(=O)CC(CC(=O)N2CCN(c3ccccc3C)CC2)(c2ccccc2OC)C1=O (configuration not stated),0.007
6,COc1cccc(CN2CCc3nnc(C(CC(C)C)NC(=O)c4cc(C)cc(C)c4)n3CC2)c1O (configuration not stated),0.331
7,CC(C)CC(=O)C1CCCN(c2nncc(-c3cccc(Cl)c3)n2)C1 (configuration not stated),0.007
